Data as given in publication PMC4336329 (PLoS ONE, 2015).
About 2,200 (0.71%) of roughly 310,000 compounds showed an effect of 50% or more. The effect is printed as a negative number. The list shows a part of the results.

Biological target: human ether-à-go-go-related gene (hERG) potassium channel (human, UniProt Q12809)
Assay: primary screen, population patch clamp on CHO cells stably expressing hERG

Chain of human ether-à-go-go-related gene (hERG) potassium channel (Q12809 whole entry, looked up): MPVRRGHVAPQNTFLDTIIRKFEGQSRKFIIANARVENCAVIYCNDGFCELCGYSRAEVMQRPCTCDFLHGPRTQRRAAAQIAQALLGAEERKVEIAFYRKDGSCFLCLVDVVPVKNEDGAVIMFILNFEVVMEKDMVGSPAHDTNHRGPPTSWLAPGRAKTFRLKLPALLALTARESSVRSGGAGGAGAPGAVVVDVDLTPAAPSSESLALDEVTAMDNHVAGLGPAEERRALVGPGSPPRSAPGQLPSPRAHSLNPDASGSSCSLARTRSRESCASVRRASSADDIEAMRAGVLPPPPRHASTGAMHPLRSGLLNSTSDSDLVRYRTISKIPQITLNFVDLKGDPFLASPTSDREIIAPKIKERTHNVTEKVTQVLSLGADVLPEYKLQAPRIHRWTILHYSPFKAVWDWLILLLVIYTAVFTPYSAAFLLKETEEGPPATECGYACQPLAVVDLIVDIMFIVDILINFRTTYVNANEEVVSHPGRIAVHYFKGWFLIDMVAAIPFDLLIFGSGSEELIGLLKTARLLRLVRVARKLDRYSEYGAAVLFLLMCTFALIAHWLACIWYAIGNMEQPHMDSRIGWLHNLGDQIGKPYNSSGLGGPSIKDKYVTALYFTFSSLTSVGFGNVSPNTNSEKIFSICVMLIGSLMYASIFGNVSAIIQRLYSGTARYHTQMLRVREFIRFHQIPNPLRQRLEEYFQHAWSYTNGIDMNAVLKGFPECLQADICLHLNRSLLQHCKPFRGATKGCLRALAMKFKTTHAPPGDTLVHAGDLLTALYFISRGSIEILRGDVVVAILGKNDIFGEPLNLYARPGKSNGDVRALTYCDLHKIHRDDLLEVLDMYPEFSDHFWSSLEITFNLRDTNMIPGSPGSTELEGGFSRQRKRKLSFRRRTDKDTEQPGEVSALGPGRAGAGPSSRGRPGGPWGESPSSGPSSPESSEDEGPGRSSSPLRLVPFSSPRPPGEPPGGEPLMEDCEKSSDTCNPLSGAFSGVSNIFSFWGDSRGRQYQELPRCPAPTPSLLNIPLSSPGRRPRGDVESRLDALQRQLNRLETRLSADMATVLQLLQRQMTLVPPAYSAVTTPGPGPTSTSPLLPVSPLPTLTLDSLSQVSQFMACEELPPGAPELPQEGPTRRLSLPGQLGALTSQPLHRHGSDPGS

Structure (SMILES) | hERG current change (%, negative = inhibition) at 1uM [%]
c1ccc(C(c2nnnn2Cc2ccco2)N2CCN(c3nc4ccccc4s3)CC2)cc1 (stereo not shown) | 8.1
CCOP(=O)(OCC)C(Nc1ccccc1)c1ccccc1C(F)(F)F (stereo not shown) | 19.9
COc1cc2[nH]c(=O)c(C(=O)NCCCN3CCOCC3)c(O)c2cc1OC.Cl | 12.6
Cc1ccc(N(CC(=O)Nc2ccc(F)c(Cl)c2)S(=O)(=O)c2c(C)noc2C)cc1 | 9.57
CC(NS(=O)(=O)c1ccccc1)C(=O)Nc1nccs1 (stereo not shown) | 13.6
Cc1cccn2c(=O)c3cc(C(=O)NC4CCCCC4C)n(C)c3nc12 (stereo not shown) | 9.38
Cc1cccc(N2CCN(C(=O)c3ccc(NS(=O)(=O)c4ccc5[nH]c(=O)[nH]c5c4)cc3)CC2)c1C | 15.5
COC(=O)COc1cccc(/C=N/NC(=O)CCSc2ccccc2)c1 | 14.1
CCOC(=O)COc1ccc(/C=C2\C(=O)NC(=S)N(c3ccc(OC)cc3)C2=O)cc1OC | 15.3
CCOc1ccc(NC(=O)CN(C)C(=O)/C=C/c2ccc(S(=O)(=O)N3CCCCCC3)cc2)cc1OCC | 19.3
COc1ccccc1CNC(=O)CN1C(=O)NC(C)(c2ccc(C)cc2)C1=O (stereo not shown) | 7.07
O=C1CCCN1CCC(=O)N1CCCC(N2CCN(c3ccccc3F)CC2)C1 (stereo not shown) | 10.7
Cc1cccc(C(=O)N/N=C/c2ccc(OCC(=O)N3CCCCC3)cc2)c1 | 17.7
CCN=C1SC(CC(N)=O)C(=O)N1CC (stereo not shown) | 15
Cc1ccc2nc(-c3ccc(NC(=O)COC(=O)c4ccc(Br)o4)cc3)sc2c1 | -0.107
COc1cc(C2NC(=O)NC3=C2C(=O)OC3)cc(OC)c1OC (stereo not shown) | 8.02
CCOc1ccc(-n2nc3c(=S)[nH]nc(C)c3c2C)cc1 | 2.44
CC1Oc2ccccc2C=C1/C=N/NC(=O)c1ccccc1 (stereo not shown) | 7.86
O=C(O)c1ccc2c(=O)n(-c3ccc(F)cc3)c(=S)[nH]c2c1 | 6.82
CNC(=S)N(Cc1ccco1)Cc1cc2cc3c(cc2[nH]c1=O)OCCO3 | 0.423
COc1ccc(C2=NS(=O)(=O)N(C)C(C(=O)NCc3ccccn3)=C2)cc1OC | 5.02
CC(=O)Nc1ccc(NS(=O)(=O)c2cc(Cl)sc2Cl)cc1 | 5.86

Structure (SMILES) | hERG current change (%, negative = inhibition) at 1uM [%]
COc1ccc(C2CC(=O)N(CC(=O)NCC3CCCO3)c3ccccc3S2)cc1 (stereo not shown) | -6.66
COc1cccc(Cl)c1NC(=O)N1CCc2c([nH]c3ccccc23)C1C(F)(F)F (stereo not shown) | 13
Cc1c(C(=O)OCC(=O)Nc2cccc(S(N)(=O)=O)c2)oc2c1ccc1ccccc12 | 8.82
CCOC(=O)C1CN(S(C)(=O)=O)c2cc(CC(=O)OC)ccc2O1 (stereo not shown) | 4.64
NC(=O)c1ccsc1NC(=O)CSc1ccccc1F | -0.041
CCN(CCO)Cc1csc2ccccc12.Cl | 3.69
CC1CCN(C(=O)c2ccc(S(=O)(=O)N(C)C)cc2)C(C)C1 (stereo not shown) | 7.65
O=C(NCCSc1c[nH]c2ccccc12)C1CC1 | 2.45
COc1ccc(CN(C)CC(=O)NC2CCCc3ccccc32)cc1OC (stereo not shown) | -5.59
O=C(Nc1nc(-c2ccc(Cl)cc2Cl)cs1)C1CCCO1 (stereo not shown) | 15
CCOC(=O)CN1CC23C=CC(O2)C(C(=O)Nc2ccc(F)cc2)C3C1=O (stereo not shown) | 8.66
Cc1n[nH]c(C)c1S(=O)(=O)N1CCCC(C(=O)Nc2ccc3c(c2)OCCO3)C1 (stereo not shown) | 6.36
CC(=O)N1c2ccc(S(=O)(=O)N3CCCC(C(=O)N4CCC(C)CC4)C3)cc2CC1C (stereo not shown) | 5.47
O=C(CCN1CCOCC1)N1CCCC(Nc2ccc(F)cc2)C1 (stereo not shown) | 16.1
O=C(CSc1nc2scc(-c3ccccc3)c2c(=O)[nH]1)N1CCCCC1 | 14.3
CCN(C(=O)CSc1nnnn1-c1ccccc1)c1c(N)n(Cc2ccccc2)c(=O)[nH]c1=O | 15.9
C=CCOC(=O)C1=C[C@H](c2cn(C(C)=O)c3ccccc23)C[C@H](OCc2ccc(CO)cc2)O1 | 14.6
O=C1CC(c2ccc(O)cc2)Oc2ccccc21 (stereo not shown) | 4.37
COc1ccc(-c2oc3ccc(-c4cc(OC)c(OC)c(OC)c4)cc3c2-c2ccc(OC)cc2)cc1 | 16.1
Cc1cc(C)nc(SCc2nnc(SCC(=O)N3CCOCC3)o2)n1 | 4.34
CCOC(=O)CN1CC23C=CC(O2)C(C(=O)NCCc2ccccc2)C3C1=O (stereo not shown) | 11.1
